Results are given in words; binding and its absence hold for the method and conditions named. Binding seen in cells or lysates may run through a third protein. Some results given as binding are weak or reduced against the parent protein; the word gives no strength.
Legend:
[1] = target: T1, Sharpin (SHANK-associated RH domain-interacting protein), expressed by transfection (UniProt Q9H0F6); test: co-IP; reciprocal co-IP (Fig. S3A, S3B); the other partner precipitated
T1 sequence: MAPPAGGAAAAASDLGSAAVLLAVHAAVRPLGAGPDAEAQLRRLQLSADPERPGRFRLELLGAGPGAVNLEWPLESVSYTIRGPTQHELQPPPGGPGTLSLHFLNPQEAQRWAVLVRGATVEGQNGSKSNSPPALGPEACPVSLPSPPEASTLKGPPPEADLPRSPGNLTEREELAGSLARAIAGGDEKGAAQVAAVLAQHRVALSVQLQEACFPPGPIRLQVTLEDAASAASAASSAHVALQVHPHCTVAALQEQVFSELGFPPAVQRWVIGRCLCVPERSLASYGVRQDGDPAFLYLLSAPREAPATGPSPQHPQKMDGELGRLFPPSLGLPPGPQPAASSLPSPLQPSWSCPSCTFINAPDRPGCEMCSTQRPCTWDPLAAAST

Protein sequences, listed by entry. Tags and fused reporters are not part of them. Lines headed by an entry give the natural chain unless they say otherwise; changes in a name come on top. Residues count along the entry.
UniProt Q96EP0: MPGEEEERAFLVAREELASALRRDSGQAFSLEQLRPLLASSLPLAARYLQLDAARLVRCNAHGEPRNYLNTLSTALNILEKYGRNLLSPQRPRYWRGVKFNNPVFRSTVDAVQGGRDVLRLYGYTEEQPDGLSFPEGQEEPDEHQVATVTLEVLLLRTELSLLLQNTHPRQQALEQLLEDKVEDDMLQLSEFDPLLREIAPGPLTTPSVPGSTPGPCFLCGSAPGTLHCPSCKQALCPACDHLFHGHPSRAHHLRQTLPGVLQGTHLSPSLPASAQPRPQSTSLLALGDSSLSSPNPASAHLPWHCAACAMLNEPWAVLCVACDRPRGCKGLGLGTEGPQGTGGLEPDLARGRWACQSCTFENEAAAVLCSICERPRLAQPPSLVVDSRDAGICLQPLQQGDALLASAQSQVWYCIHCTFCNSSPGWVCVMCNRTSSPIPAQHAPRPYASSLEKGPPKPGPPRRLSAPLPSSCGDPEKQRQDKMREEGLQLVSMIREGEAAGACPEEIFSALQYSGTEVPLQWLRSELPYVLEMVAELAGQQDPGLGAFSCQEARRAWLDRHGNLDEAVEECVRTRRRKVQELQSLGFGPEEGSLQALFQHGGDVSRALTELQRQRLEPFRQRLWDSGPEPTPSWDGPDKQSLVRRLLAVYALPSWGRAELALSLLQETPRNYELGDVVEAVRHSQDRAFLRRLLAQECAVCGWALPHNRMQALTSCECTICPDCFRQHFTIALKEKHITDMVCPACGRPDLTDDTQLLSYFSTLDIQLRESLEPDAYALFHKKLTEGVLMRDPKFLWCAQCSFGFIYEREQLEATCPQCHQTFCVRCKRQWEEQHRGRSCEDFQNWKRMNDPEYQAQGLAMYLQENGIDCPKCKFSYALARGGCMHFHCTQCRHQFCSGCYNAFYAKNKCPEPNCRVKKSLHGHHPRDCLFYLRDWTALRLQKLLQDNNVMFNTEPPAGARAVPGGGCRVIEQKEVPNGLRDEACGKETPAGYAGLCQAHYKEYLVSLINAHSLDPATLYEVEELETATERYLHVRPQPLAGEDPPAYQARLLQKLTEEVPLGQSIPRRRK
UniProt Q16665: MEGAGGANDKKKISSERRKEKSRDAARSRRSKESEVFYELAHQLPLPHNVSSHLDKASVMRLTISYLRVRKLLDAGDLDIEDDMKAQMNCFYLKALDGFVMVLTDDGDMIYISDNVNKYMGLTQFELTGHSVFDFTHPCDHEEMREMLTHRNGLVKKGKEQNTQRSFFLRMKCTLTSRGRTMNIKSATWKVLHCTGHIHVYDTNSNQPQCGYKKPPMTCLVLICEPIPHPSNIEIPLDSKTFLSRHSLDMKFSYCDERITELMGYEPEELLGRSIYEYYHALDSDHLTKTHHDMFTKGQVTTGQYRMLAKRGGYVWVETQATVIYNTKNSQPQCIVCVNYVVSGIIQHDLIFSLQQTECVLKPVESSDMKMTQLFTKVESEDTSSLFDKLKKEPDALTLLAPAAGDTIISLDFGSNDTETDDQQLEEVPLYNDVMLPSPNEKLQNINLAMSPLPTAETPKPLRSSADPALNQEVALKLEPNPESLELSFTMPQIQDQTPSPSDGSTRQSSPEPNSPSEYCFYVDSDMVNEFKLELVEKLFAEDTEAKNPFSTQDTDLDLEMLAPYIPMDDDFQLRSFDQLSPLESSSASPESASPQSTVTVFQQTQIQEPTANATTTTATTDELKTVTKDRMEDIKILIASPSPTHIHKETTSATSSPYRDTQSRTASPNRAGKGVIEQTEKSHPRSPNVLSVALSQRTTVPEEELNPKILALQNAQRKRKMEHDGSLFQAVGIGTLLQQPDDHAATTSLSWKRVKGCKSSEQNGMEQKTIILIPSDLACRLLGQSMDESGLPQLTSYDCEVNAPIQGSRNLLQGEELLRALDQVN
HIF1α(1-80): residues 1-80 of Q16665
UniProt P11142: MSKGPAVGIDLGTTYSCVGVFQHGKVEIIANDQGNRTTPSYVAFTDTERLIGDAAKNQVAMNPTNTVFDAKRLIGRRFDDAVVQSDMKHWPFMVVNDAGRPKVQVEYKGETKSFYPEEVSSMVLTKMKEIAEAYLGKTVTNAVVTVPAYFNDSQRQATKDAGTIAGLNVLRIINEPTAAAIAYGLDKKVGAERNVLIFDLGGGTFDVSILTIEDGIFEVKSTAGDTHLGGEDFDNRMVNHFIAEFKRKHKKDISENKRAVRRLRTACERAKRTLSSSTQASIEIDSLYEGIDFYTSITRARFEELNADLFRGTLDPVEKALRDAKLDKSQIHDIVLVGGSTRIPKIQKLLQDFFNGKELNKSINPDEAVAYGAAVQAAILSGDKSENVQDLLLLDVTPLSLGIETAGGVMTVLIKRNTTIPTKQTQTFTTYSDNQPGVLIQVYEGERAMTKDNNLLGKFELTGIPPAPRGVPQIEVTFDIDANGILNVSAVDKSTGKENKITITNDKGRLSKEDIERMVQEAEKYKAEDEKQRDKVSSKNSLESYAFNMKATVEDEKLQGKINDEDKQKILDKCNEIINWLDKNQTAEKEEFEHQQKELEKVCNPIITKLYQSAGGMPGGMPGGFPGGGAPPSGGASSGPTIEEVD

[2] = target: HOIP (HOIL-1L interacting protein), full-length, expressed by transfection (UniProt Q96EP0); test: as above
[3] = target: HIF1α (hypoxia-inducible factor 1 alpha), full-length, expressed by transfection (UniProt Q16665); test: co-IP; co-IP/IB from lysates of HEK293T cells transfected as indicated (antibody with Protein A/G agarose overnight, then immunoblot)
HIF1α(1-80) = HIF1α(1-80) (UniProt Q16665); test: pull-down; GST pulldown from lysates of transfected HEK293T cells in NETN buffer on glutathione agarose, detected by immunoblot; in Fig. 6E, F with or without overexpressed HOIP
[4] = target: HIF1α, endogenous in A549 cells (human (endogenous in A549)) (UniProt Q16665); test: co-IP; IP/IB of endogenous proteins from A549 lysates (antibody with Protein A/G agarose overnight, then immunoblot); cells untreated or treated with DMOG, or A549 HOIPCON/HOIPOE and HOIPWT/HOIPKO lines
[5] = target: HIF1α^K362R, linear ubiquitination-resistant mutant of HIF1α (UniProt Q16665); test: co-IP; co-IP/IB from lysates of HEK293T cells transfected as indicated (antibody with Protein A/G agarose overnight, then immunoblot)
[6] = target: HIF1α (hypoxia-inducible factor 1 alpha), full-length, expressed by transfection (UniProt Q16665); test: pull-down; GST pulldown from lysates of transfected HEK293T cells in NETN buffer on glutathione agarose, detected by immunoblot; in Fig. 6E, F with or without overexpressed HOIP

Row | binding [3] | binding (HIF1α(1-80)) | binding [4] | Substance | further results
1 | – | – | – | HIF1α (hypoxia-inducible factor 1 alpha), full-length, expressed by transfection (from UniProt Q16665 1-826) | binding [1]: no binding; binding [2]: binds
2 | binds | binds | – | HOIP (HOIL-1L interacting protein), full-length, expressed by transfection (from UniProt Q96EP0 1-1072) (enzyme) | –
3 | – | binds | – | HOIP(521-570) (from UniProt Q96EP0 521-570) (domain or fragment) | –
4 | – | – | binds | HOIP, endogenous in A549 cells (from UniProt Q96EP0 1-1072) (enzyme) | –
5 | binds | – | – | HSC70 (heat-shock cognate protein of 70 kDa) in HEK293T cells (from UniProt P11142 1-646) | binding [5]: binds; binding [6]: binds
6 | – | – | binds | HSC70, endogenous in A549 cells (from UniProt P11142 1-646) | –
